Test results published in PubChem BioAssay AID488969 (Vanderbilt High Throughput Screening Facility, 2010).
The full ranking holds about 110,000 compounds; the median of “z-score” is about -0.1, and the highest 2% start at about 2. The list shows a part of the results. Active and inactive are the calls of the source.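 Rule for the calls: active = z-score in the third read window above 3 or below -3; inactive = the rest.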

What follows are compounds tested against Metabotropic glutamate receptor 8 (Rattus norvegicus) (UniProt P70579) (assay: mGluR8 Gi/Go-coupled signaling modulation – cell-based, rat, thallium flux, HTS, primary screen (AID 488969)). Settings: HEK293 rat mGluR8, GIRK (G protein-gated inwardly rectifying potassium channel) thallium flux, FluoZin2; at 10 µM; stronger effect = higher value; submaximal glutamate (EC20) added with thallium.
Sequence of UniProt P70579 (P70579 whole entry, looked up): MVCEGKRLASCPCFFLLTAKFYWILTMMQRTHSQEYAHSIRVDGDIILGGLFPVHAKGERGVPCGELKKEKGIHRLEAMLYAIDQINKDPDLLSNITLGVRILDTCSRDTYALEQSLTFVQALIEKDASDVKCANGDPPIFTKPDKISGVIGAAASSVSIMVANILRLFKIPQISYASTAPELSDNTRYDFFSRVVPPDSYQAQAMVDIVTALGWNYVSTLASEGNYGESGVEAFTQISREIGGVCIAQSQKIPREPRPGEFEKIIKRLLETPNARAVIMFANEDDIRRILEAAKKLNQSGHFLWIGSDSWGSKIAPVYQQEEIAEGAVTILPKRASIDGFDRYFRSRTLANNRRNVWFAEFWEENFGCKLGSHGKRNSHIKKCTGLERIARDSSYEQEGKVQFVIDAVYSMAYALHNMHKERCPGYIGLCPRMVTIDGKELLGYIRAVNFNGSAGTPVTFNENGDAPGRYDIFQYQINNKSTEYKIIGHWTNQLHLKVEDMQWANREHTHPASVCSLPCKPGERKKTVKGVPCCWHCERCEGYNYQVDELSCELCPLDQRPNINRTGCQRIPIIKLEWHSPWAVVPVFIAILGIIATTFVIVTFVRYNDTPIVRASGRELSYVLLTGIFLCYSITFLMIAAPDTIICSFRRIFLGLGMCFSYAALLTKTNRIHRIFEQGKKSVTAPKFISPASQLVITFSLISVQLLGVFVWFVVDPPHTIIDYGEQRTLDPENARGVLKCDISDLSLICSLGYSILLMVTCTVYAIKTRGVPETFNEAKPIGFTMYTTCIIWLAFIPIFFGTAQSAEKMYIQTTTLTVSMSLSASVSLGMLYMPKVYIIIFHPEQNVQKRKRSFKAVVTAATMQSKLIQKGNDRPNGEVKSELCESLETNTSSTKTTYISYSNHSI
With `C=C(C)CNC(=S)N/N=C1\CCCCc2ccccc21` the z-score was active: 3.15.
`CCOC(=O)c1ccc(-n2c(C)nc3c(cnn3-c3ccccc3C)c2=O)cc1` showed a z-score of -0.454.
`O=C(Nc1cccc2cccnc12)c1cccc2ccccc12` was tested, and the z-score was 0.392.
Work on `COc1cc(C)c(Cl)cc1S(=O)(=O)NCc1ccncc1` yielded a z-score of -0.0504.
`O=CN1CCN(C(=O)c2ccccc2Cl)CC1` showed a z-score of -0.278.
In the case of `O=c1oc2ccccc2n1CCc1ccccc1`, the z-score is reported as -0.159.
`Cc1ccc(CSCCNC(=O)c2ccc(N(C)S(=O)(=O)c3ccccc3)cc2)cc1` showed a z-score of -0.189.
Compound `Cc1ccc(SCC(=O)NC(=O)c2ccc(S(=O)(=O)N(C)C)cc2)cc1C` has a z-score of -0.181.
`CN(C)S(=O)(=O)c1ccc(C(=O)OCn2nnc3ccccc3c2=O)cc1` was tested, and the z-score was -0.599.
Compound `CC(C)=C1SC(N2CCN(c3ccc(C)cc3)CC2)=NC1=O` has a z-score of -0.391.
For `COc1ccc(-n2c(C)nc3c(cnn3-c3ccc(C)c(C)c3)c2=O)cc1`, the z-score was 0.55.
`O=C(Nc1ccc(-c2cc3ccccc3oc2=O)c(Cl)c1)c1cccnc1` was tested, and the z-score was -0.334.
With `COc1cc(NC(=O)c2cc(OC)c(OC)c(OC)c2)c(OC)cc1NC(=O)CN1CCCCC1` the z-score was -2.33.
With `CCOc1ccccc1C1N(c2ccc(F)cc2)C(=O)C2CCCN21` (stereo unspecified) the z-score was 0.236.
Compound `CC(=O)Oc1c(C)c(=O)n(C)c2ccccc12` has a z-score of -0.613.
Compound `CCc1ccc(NC(=O)C2CC(=O)N=C(N)S2)cc1` (stereo unspecified) has a z-score of 0.0844.
`CCN(CC)S(=O)(=O)c1cccc(C(=O)Nc2cc(C)cc(C)c2)c1` gave a z-score of 0.0622.
Compound `Cc1nn2c(COc3ccc(NC(=O)c4ccccc4Cl)cc3)nnc2c2ccccc12` has a z-score of 0.246.
Compound `Cc1cc(Cl)ccc1NC(=S)N(CCCN1CCOCC1)Cc1cccs1` has a z-score of -0.367.
Work on `Cc1cc(C)cc(Oc2ncnc3c2ncn3Cc2c(Cl)cccc2Cl)c1` yielded a z-score of -0.184.
`Cc1cccc(-n2c(CCN3C(=O)c4ccccc4C3=O)nc3ccccc3c2=O)n1` gave a z-score of -0.233.
`COC(=O)c1c(C)oc2ccc(NS(=O)(=O)c3cccs3)cc12` showed a z-score of -0.587.
For `OC(Cn1cncn1)c1ccc(Cl)cc1` (stereo unspecified), the z-score was 0.554.
Work on `CC(=O)c1ccc(N2CCN(C(=O)c3ccc(OCc4c(C)noc4C)cc3)CC2)cc1` yielded a z-score of 0.463.
`Cc1cccn2c(=O)c3cc(C#N)c(=N)n(CCN4CCOCC4)c3nc12` was tested, and the z-score was -0.18.
`CCc1ccc(OC)c(S(=O)(=O)NCCOc2ccccc2)c1` was tested, and the z-score was -0.254.
For `CCOc1ccc(/C=N/NC(=O)c2c(-c3ccccc3)noc2C)cc1`, the z-score was -0.181.
For `Clc1ccc(C(c2nnnn2C2CCCCC2)N(Cc2cccnc2)Cc2ccco2)cc1` (stereo unspecified), the z-score was -0.77.
`COc1ccc(-c2cc3nc[nH]c(=O)c3s2)cc1` showed a z-score of 0.281.
For `N#C/C(=C\c1ccc(Cl)s1)C(=O)N1CCN(c2ccccc2)CC1`, the z-score was -0.244.
Work on `O=C(N/N=C/c1ccco1)c1cc(-c2ccccc2)n[nH]1` yielded a z-score of 0.423.
Work on `O=C(c1oc2ccccc2c1CSCc1ccccc1)N1CCN(c2ncccn2)CC1` yielded a z-score of 1.89.
With `CCOC(=O)C(NC(=O)OC(C)C)(Nc1nccs1)C(F)(F)F` (stereo unspecified) the z-score was 0.497.
`Nc1nonc1-n1nnc(C(=O)N/N=C/c2cc(Br)ccc2O)c1CSC1=NCCS1` showed a z-score of 0.661.
With `Cn1c(Cn2cnc([N+](=O)[O-])n2)nnc1SCC(=O)Nc1ccccc1` the z-score was -1.24.
`N=c1oc2ccccc2cc1-c1nc(-c2ccc(Cl)cc2)cs1` gave a z-score of -0.248.
`CC(=O)c1ccc(NC(=O)CCSCCC(=O)Nc2ccc(C(C)=O)cc2)cc1` showed a z-score of -0.481.
Compound `COc1ccc(C(=O)NCC(=O)N2CCC(C)CC2)cc1OC` has a z-score of 0.00724.
For `O=C(NCCCn1ccnc1)c1cn(-c2ccccc2)nc1-c1ccccc1`, the z-score was -0.532.
For `Cc1cnc(C(=O)OCC(=O)NCc2ccccc2)cn1`, the z-score was -0.845.
`COc1cc2c(C(=O)N3CCN(C)CC3)c(C)n(-c3ccccc3)c2cc1Br` gave a z-score of -0.333.
Work on `N#CC1=C2SCN(c3ccc(F)cc3)CN2C(=O)CC1c1cccc(F)c1` (stereo unspecified) yielded a z-score of -0.281.
`CCc1ccc(Nc2nnc(SCC(=O)Nc3sccc3C(N)=O)s2)cc1` was tested, and the z-score was -0.208.
For `CCOC(=O)c1cc(Br)c(=O)n2ccccc12`, the z-score was -0.334.
`CN(CC(=O)N1CCc2ccccc21)S(=O)(=O)c1ccc(Cl)cc1` gave a z-score of -0.00318.
With `CCc1cccc(NC(=O)Cn2c(-c3ccccc3)cc(C(C)=O)c2C)c1` the z-score was -0.0569.
`CC1(C)CC2CC(C)(CN2C(=O)COC(=O)CNC(=O)c2ccc(Cl)c(Cl)c2)C1` (stereo unspecified) gave a z-score of -0.326.
`COc1cc(/C=C/c2noc(-c3ccccc3O)n2)cc(OC)c1OC` was tested, and the z-score was 0.236.
`COc1cc(S(=O)(=O)N2CCN(C)CC2)ccc1Cl` was tested, and the z-score was -0.0928.
With `CCOc1ccccc1OCC(=O)Nc1ccc(N2CCCCC2)cc1` the z-score was 0.13.
Work on `COC(=O)[C@H](C)NC(=O)NC1CCCc2ccccc21` (stereo partly specified) yielded a z-score of 0.715.
`CCCc1ccc(-c2cc(NC(=O)CSc3n[nH]c(N)n3)n(-c3ccccc3)n2)cc1` was tested, and the z-score was -0.0405.
Compound `O=C(CSc1nc2ccccc2c(=O)[nH]1)c1cccs1` has a z-score of -1.18.
`CCOC(=O)c1oc2ccc(S(=O)(=O)Nc3ccc4c(c3)n(C)c(=O)n4C)cc2c1C` showed a z-score of -1.19.
`Cc1oc2ccc(OCC(N)=O)cc2c1C(=O)OC(C)C` was tested, and the z-score was 0.262.
In the case of `Cc1ccc(Cl)cc1N(Cc1ccc(C(=O)NCc2cccnc2)cc1)S(=O)(=O)c1ccccc1`, the z-score is reported as -0.0346.
With `CC1CCCCC12NC(=O)N(CC(=O)Nc1sc3c(c1C(N)=O)CCC3)C2=O` (stereo unspecified) the z-score was 0.0207.
Compound `CC(=O)c1c(C)[nH]c(C(=O)OCC(=O)N(C)C)c1C` has a z-score of 0.594.
`O=C(c1ccccc1)N1CCOC12CCN(c1ncc(C(F)(F)F)cc1Cl)CC2` was tested, and the z-score was -1.17.
`COc1cc(-c2n[nH]c(=S)n2-c2cc(C(F)(F)F)ccc2Cl)cc(OC)c1OC` gave a z-score of 0.352.
For `O=C(O)CCC(=O)Nc1ccccc1C(=O)Nc1ccccc1`, the z-score was -0.0377.
`COCCn1c(C)cc(C(=O)CSc2n[nH]c(N)n2)c1C` was tested, and the z-score was 0.27.
`Cc1ccc(C(C(=O)NC2CCCC2)N(Cc2cccs2)C(=O)CNC(=O)c2cccs2)o1` (stereo unspecified) showed a z-score of -0.479.
For `CC1=CSC2=NC(=O)/C(=C\c3cccn3-c3ccc([N+](=O)[O-])cc3)C(=N)N12`, the z-score was 0.0319.
With `COc1ccc(Cl)cc1NC(=O)CCn1cnc2ccccc2c1=O` the z-score was 0.216.
Work on `C=CCNC(=O)Nc1ccc(OCC)cc1` yielded a z-score of 0.217.
In the case of `CCCNC(=S)Nc1ccc(Nc2ccccc2)cc1`, the z-score is reported as -0.261.
Work on `O=C(Cn1c(=O)n(-c2ccccc2)c(=O)c2oc3ccccc3c21)Nc1ccccc1` yielded a z-score of -0.388.
`CCOC(=O)CC(C#N)c1cn(C)c2ccccc12` (stereo unspecified) gave a z-score of -0.146.
Work on `CC(=O)O[C@H]1CSC[C@H]1NC(=O)c1ccccc1` yielded a z-score of 0.95.
For `COc1ccc(C2C(C(C)=O)=C(O)C(=O)N2c2nccs2)cc1` (stereo unspecified), the z-score was -0.323.
Work on `Cc1ccc(-c2cc(C(=O)Nc3cnn(C(C)C)c3)no2)cc1` yielded a z-score of 0.74.
`O=C(c1nc2ncccn2n1)N1CCN(c2ccccc2)CC1` gave a z-score of -0.0837.
Compound `COc1ccc(C(=O)n2nc(C)cc2Nc2ccccc2)cc1` has a z-score of 0.319.
Compound `Cn1c(-c2ccc(C=O)s2)nc2ccccc21` has a z-score of -0.462.
`O=C(Oc1ccc2ccc(=O)oc2c1)C1CCCCC1` was tested, and the z-score was -0.195.
With `Cc1ccnc2nc(C(=O)N3CCN(c4ccc(F)cc4)CC3)nn12` the z-score was -0.0086.
For `CN(C)c1ccc(CC(=O)c2nc3ccccc3s2)cc1`, the z-score was -0.0472.
`COc1ccc(C(=O)Nc2cc(OC)cc(OC)c2)cc1` was tested, and the z-score was -0.246.
`Cc1nc(-c2cccc(S(=O)(=O)N3CCC(C)CC3)c2)cs1` was tested, and the z-score was -0.145.
`COc1ccc(C(=O)c2oc3ccccc3c2NC(C)=O)cc1` showed a z-score of -0.128.
Work on `C/C(=N\N=C1\NC(=O)CC(C(=O)O)S1)c1cccs1` (stereo unspecified) yielded a z-score of -0.264.
In the case of `CCOC(=O)c1c(C)n(C)c2ccc(OCC(O)CN(CC)CC)cc12` (stereo unspecified), the z-score is reported as 0.554.
`COc1ccc(NS(=O)(=O)c2ccc3c(c2)n(C)c(=O)n3C)cc1` showed a z-score of 0.174.
`CCC(C)n1[nH]c(=O)c2c(C)cc(C)nc21` (stereo unspecified) gave a z-score of 0.609.
For `C=CCSc1nnc(-c2sc(-c3ccccc3)nc2C)n1C`, the z-score was -0.24.
`COc1ccc(S(=O)(=O)N2CCC(C(=O)NCC3CCCO3)CC2)cc1` (stereo unspecified) gave a z-score of 0.371.
Compound `Cc1ccc(NC(=O)COC(=O)Cn2nc(C)c([N+](=O)[O-])c2C)c([N+](=O)[O-])c1` has a z-score of -0.0642.
For `CCOC(=O)CSc1nc2c(c(=O)[nH]c(=O)n2C)n1CCCc1ccccc1`, the z-score was -0.157.
`Cc1c(C(=O)N2CCCCCC2)nnn1-c1nonc1N` showed a z-score of 0.063.
`Cc1no[n+]([O-])c1COc1ccc(/C=C2\NC(=S)NC2=O)cc1` was tested, and the z-score was -0.00802.
`CC(CN1CCOCC1)C(=O)O` (stereo unspecified) gave a z-score of 0.239.
In the case of `Nc1c(CO)nnn1-c1ccccc1`, the z-score is reported as -0.379.
`Cc1cc2c(cc1C)CSC(c1ccc3ccccc3c1O)SC2` showed a z-score of -0.287.
With `CCOC(=O)c1c(-c2ccc(C)o2)csc1NC(=O)COC(=O)c1ccc(NC(N)=O)cc1` the z-score was -0.383.
Compound `COc1ccc2c(c1OC)C(=O)N1c3ccccc3N=C(c3ccc([N+](=O)[O-])cc3)CC21` (stereo unspecified) has a z-score of -0.351.
In the case of `C1CCC(n2nnnc2CN2CCCC2)CC1`, the z-score is reported as -0.256.
`CC(=O)c1c(C)[nH]c(C(=O)Nc2c(C)n(C)n(-c3ccccc3)c2=O)c1C` showed a z-score of -0.542.
With `Cc1ccc2cc(/C=N/NC(=O)CN3CCOCC3)c(Cl)nc2c1` the z-score was -0.0884.
`CCN(CC)Cc1c(CC(C)C)oc(C)c1C(=O)O` showed a z-score of 0.246.
In the case of `COc1ccc(C2(C(=O)NC3CCCCC3)CCOCC2)cc1OC`, the z-score is reported as -1.5.
Work on `Cc1ccccc1Cn1ccc(NC(=O)c2nc3ncccn3n2)n1` yielded a z-score of -1.29.
`COc1ccc(CCn2c(N)c(C#N)c3nc4ccccc4nc32)cc1OC` was tested, and the z-score was 0.417.
Work on `Cc1ccc(C(=O)CSc2cnc3ccccc3n2)cc1C` yielded a z-score of -0.0357.
`Cn1c(=O)[nH]c(=O)c2c1nc(NCc1ccccc1)n2CC(O)c1ccccc1` (stereo unspecified) showed a z-score of 0.332.
`COc1ccccc1C(CNC(=O)c1ccc(S(=O)(=O)NCc2ccco2)cc1)N(C)C` (stereo unspecified) gave a z-score of -0.112.
With `Cc1cc(Nc2ccccc2Cl)n2nnnc2n1` the z-score was 0.826.
`CC(=O)Nc1ccc(NC(=O)Cn2cc3c(n2)CCC(C)C3)cc1` (stereo unspecified) gave a z-score of 0.325.
For `Cc1cc(C#N)c(C)n1-c1cc(C(F)(F)F)ccc1N1CCOCC1`, the z-score was -0.333.
`CN1CCN(CCc2nc3cc(NC(=O)COc4ccccc4)ccc3n2C)CC1` gave a z-score of -0.261.
Work on `Cc1c(NC(=O)c2ccc(Cl)c(S(=O)(=O)N3CCOCC3)c2)c(=O)n(-c2ccccc2)n1C` yielded a z-score of -0.296.
